Test results taken from the supplement of paper PMC11417369.
This is one part of the list.

The sequences below were run on PfAP2-HC AP2 domain (GST-tagged) (assay: gcPBM binding intensity (ln(normalized median fluorescence intensity)); higher = stronger DNA binding).
Method in brief: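 GST-fused DNA-binding domains of P. falciparum, expressed in E. coli, were applied at about 25 μg on average for 1 h to an Agilent 4 × 180k array of primer-extended double-stranded 36-bp intergenic genomic probes and negative controls. Binding intensity is the highest Masliner-normalised natural-log median intensity across replicate spots of either probe orientation, measured with Alexa488 anti-GST antibody and a 488 nm scan.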

| Sequence | gcPBM binding intensity (ln) |
| --- | --- |
| AACAGACATAGACACACACACATATATTTATTTATA [CACACA_site7571] | 10.4 |
| ATGCAAATAATATAAAGTACACAACATCGCCCAAAG [XGTACX_site1825] | 10 |
| TTTTTTAAATTTTGAATTATAACTACATTAAAGAAA [GTGCAC_negctrl_site279] | 8.97 |
| CATTATGTCATAAATGCACACATATATATATACATA [CACACA_site8454] | 9.73 |
| TATTTAAAAGTATATACACACAACTGGAATGAAAAG [CACACA_site4126] | 9.98 |
| ATTATAACACCTCCCCCCCTTTTTTTATGAAGACCA [CACACA_negctrl_site1043] | 10.1 |
| TATTTTAATCGTAAGTGTACTCTTTTAAGTATATGT [XGTACX_site8591] | 9.64 |
| TATGTATGCCCTAATGCATGTGAACAAAATAATATA [TGCATGCA_site407] | 9.56 |
| AAAATTAAAAAAATAAATACATTATATAATTAAAAA [CACACA_negctrl_site1426] | 9.52 |
| TTTATTAGATAACGATAAACGAAAAAAAAAAAATAA [GTGCAC_negctrl_site81] | 9.4 |
| ATAATATAAATAAAGCGTACTTAATTTTATATATAT [XGTACX_site4626] | 9.6 |
| TGTTGTAACAAAAGTACACACACATTTCTATAAATT [CACACA_site8894] | 9.86 |
| ATTACATAACAATATACACACTATTGATTAAAGAGA [CACACA_site5602] | 9.82 |
| CTATAAATGAATGTTTGTACTTAATAATAAAAGAAA [XGTACX_site3170] | 9.49 |
| TTTTTTACAAATGATATCATTTCTTTAAATATTAAA [TGCATGCA_negctrl_site279] | 9.59 |
| TATTTTTTTCATAACAGTACAATAATATATATTTTT [XGTACX_site5739] | 9.61 |
| GCACACACAAAAAAAGCATGCATACTAGCTATTTTT [TGCATGCA_site18] | 10 |
| AATCAAAAAAAATGTTGTACGCCTAATTATAATTAA [XGTACX_site8906] | 9.52 |
| AATGAAATAAATAAGGGTACACATAAATATATATAT [XGTACX_site7006] | 9.83 |
| AAAAAACACCCATACACACACACACCGATATATATA [CACACA_site5808] | 11 |
| TATTCGTGCAATAATAGTACACTTATAAATTATTCA [XGTACX_site8993] | 9.52 |
| AATGGGGAAGGTTCTACACACAACGCAAATGCCTTA [CACACA_site2758] | 9.87 |

| Sequence | gcPBM binding intensity (ln) |
| --- | --- |
| TATAAATAATGTTAAACACACATACCGATATATAAT [CACACA_site5499] | 9.82 |
| AAATTATTATGTATTTGTACACATAAGAATATAAAA [XGTACX_site6841] | 10 |
| AGAGAAAGAAAGAAATGTACAAATACCTACACACAT [XGTACX_site3140] | 10.2 |
| TCAGTTAATGTATATGTACACACGGTGAGTATATAT [CACACA_site3346] | 9.76 |
| ATCCACAAAATAGGATGTACATATAAAATAAATAAA [XGTACX_site5362] | 9.75 |
| TATGGAATAATACGCGTACACACATATATATATTAA [CACACA_site132] | 9.87 |
| TTTATAAGAATTACTAGTACATATAAGGAATTATAT [XGTACX_site3953] | 9.53 |
| CATTTTTTATAATAATGTACATGTATTAAAAAAAAA [XGTACX_site6390] | 9.31 |
| TTATAAATTTAAAGTAGTACTATACTACTATTTTAT [XGTACX_site3038] | 9.6 |
| TATATATCAAAAATATGTACACAGAAATATATATTA [XGTACX_site6997] | 9.71 |
| ACATATAAAATATATACACACATATAAATACATTAA [CACACA_site3867] | 9.97 |
| TTGCAATAATGTTGCACACTAAATAGTCATATATAA [CACACA_site263] | 9.63 |
| ATATAATATTACAAATGTACTTTAAAAAATTAGGAG [XGTACX_site3897] | 9.33 |
| TTGTTTCAAGAAAAAATCGAAAAACATAGAAAAAAA [XGTACX_negctrl_site615] | 9.47 |
| ATATTTTTGTTCAGGAGTACAGTTCAAGATGAAAAT [XGTACX_site4178] | 9.66 |
| ATAACATAATAGCAACAATTTATTTCCTCTATAACA [CACACA_negctrl_site243] | 9.63 |
| TTTTTTATATATGTGTGTGTGTGTGTGTCAAGTTTA [GTGCAC_negctrl_site460] | 11.1 |
| TTTGGGATATTTACAGTGCAAAGATATTTTTATAAT | 9.45 |
| TTTTAGTGAAATGAGTGTACATTATATATTTTTTTT [XGTACX_site4892] | 9.54 |
| ATTCTATATATATAAACACACAAATATTTTTATATA [CACACA_site1677] | 9.65 |
| AAGACTAATCTAGGTAGTACTTATATATCTTTATTT [XGTACX_site4572] | 9.68 |
| ATATAAGGAAGGGATGCACACAAAAGGGTACATAAG [CACACA_site9328] | 10.1 |

| Sequence | gcPBM binding intensity (ln) |
| --- | --- |
| AAAAATATAAAGAAATGTACTTATAAAAATCCCTAC [XGTACX_site3824] | 9.68 |
| TACACCAGTTGTGGGAGTACACAAAAAAAGGGAAAA [XGTACX_site6047] | 9.77 |
| TTCTGTTCAAAATATGAACACACACCGATATATATA [CACACA_site8637] | 9.91 |
| CTTTATCTTTTTCATTGTACTTTATTTTAAAATTAA [XGTACX_site4858] | 9.73 |
| TGCAGTCTGGAGAAAAGTACACAGTATCTGGTAGCT [XGTACX_site2013] | 9.58 |
| AATATCATAAAATAAAGTACAAATATATATTGAAAA [XGTACX_site8813] | 9.8 |
| AATAGATTTTTATGCGTGCACACATTTAACAAAAAA | 9.77 |
| GTGCTAGTATTTAATACACACAATTGAAGTTCCTGA [CACACA_site1452] | 9.63 |
| TAACATCCTAATGTCACACATGTTATAGGTTTAAAT [CACACA_site5649] | 9.56 |
| TTCTGGTGTAAATGCACACAGAAGAAGAAAAAAAAA [CACACA_site3685] | 9.73 |
| TAATTTAATTTTCCAAGAAAAAAAAAAGAAAAAAGA [CACACA_negctrl_site1703] | 9.43 |
| TTTGAAATATTTATTTGTACATATACACACTTAAAT [XGTACX_site8321] | 9.68 |
| ATATTATTTTGTCAGGGTACATTCCATAAGTTTTTT [XGTACX_site6855] | 9.82 |
| TCCTTTCTTTTTTAAACATGCATATGTAATATAAAT [TGCATGCA_site979] | 9.52 |
| CCTTCATCATATTTAACACACAGAGAAAAAGCGGAT [CACACA_site274] | 9.68 |
| AAAAAAAAAAAAAAAAAAACCACAAACAAATATGAA [TGCATGCA_negctrl_site34] | 9.55 |
| CTCGTATATATAATACGTACATATTATATATATATA [XGTACX_site1704] | 9.59 |
| TTTACATACAAATTAACACACATATAGAAAAGAGAA [CACACA_site1889] | 9.88 |
| AAAAAAAATAAACACACACACATACCCATAAATATA [CACACA_site5980] | 10.4 |
| TTTTAAAATATATTTGTATATATATATATATATATA [XGTACX_negctrl_site536] | 9.47 |
| ATAATATAATAATACACACTCATTATATATATAAAG [CACACA_site3956] | 9.81 |
| GCTTGTTCAAAAATGAGTACATACAAATAGTTGTAT [XGTACX_site1770] | 9.63 |

| Sequence | gcPBM binding intensity (ln) |
| --- | --- |
| TATTTATGTAGATACACACCCATGTTATATGGAGGT [CACACA_site3461] | 9.67 |
| TTTCTTTTTTTTTTTATTTACCTGAATTATGTATTA [TGCATGCA_negctrl_site345] | 9.61 |
| AGTTTATTTATATACACACACATATAAATATTATAG [CACACA_site6522] | 10 |
| ATATATATTTATGTATCACACACAAAAAAAAAAAAT [CACACA_site7973] | 10.3 |
| TATATATATATATATTGTACTTATGTTTATATTCAT [XGTACX_site6258] | 9.68 |
| TTCTTTAAAATATTATGTACACATTGCGAACAGTTT [XGTACX_site5418] | 9.76 |
| AATAAATAAATATATATATATATATAATATCATAAA [CACACA_negctrl_site337] | 9.78 |
| TTTTTTATTAGTATCTGTACACATTGGTATTTGTAT [XGTACX_site6682] | 9.92 |
| TTCTTAAAATATGAAAGTACATAGGCATTATATATT [XGTACX_site8400] | 9.45 |
| ATAAACTGAGTGGTTACACACAAAACCAATAACTTT [CACACA_site7601] | 9.9 |
| ATATAGACACACACATGTACATATGCCAACGTGATA [XGTACX_site3828] | 10.1 |
| ACTATATAATATAATATATTATAATATATTATATTA [GTGCAC_negctrl_site140] | 9.51 |
| TATGTATATATTTGTGCACACCAAAGTTTGATTTTA [CACACA_site1861] | 9.98 |
| TTATAATAAACCTATACACACATAAATAAATAAATA [CACACA_site2581] | 9.88 |
| AATAATATTTATTTTTGTACATATGTGCATTATAAA [XGTACX_site3682] | 9.65 |
| ATTAATTTTATATATGCACACAAAATATGTTCATAT [CACACA_site9350] | 9.94 |
| ATGATCATAAAACACACACACAAAAAAAAAAAAAAA [CACACA_site1805] | 10.1 |
| CCATGCATACATTCTTGTACACATTTCTATTATGAG [XGTACX_site39] | 9.74 |
| GAATTCAACAAAAAAAGTACTCTACATAAAATAATG [XGTACX_site175] | 9.5 |
| ATATTGATGTATTGTTTTTTTTTTTTCTTTTTTTTT [CACACA_negctrl_site1238] | 9.64 |
| GAACGAAACTTTCTTACACACATTGAAATTTTTTTC [CACACA_site1779] | 10 |
| TTATAAAAGGACTTCTGTACGAATTTTTTTTAATAA [XGTACX_site1411] | 9.24 |
